Experimental data published in publication PMC4695013.
No constants are given. Whether binding was seen depends on the method and setting. In cells and extracts the contact can be indirect. Some results given as binding are weak or reduced against the parent protein; the word gives no strength. Tags and fused reporters may be left off the sequences shown.

Protein sequences, listed by entry. Tags and fused reporters are not part of them.
UniProt P18887: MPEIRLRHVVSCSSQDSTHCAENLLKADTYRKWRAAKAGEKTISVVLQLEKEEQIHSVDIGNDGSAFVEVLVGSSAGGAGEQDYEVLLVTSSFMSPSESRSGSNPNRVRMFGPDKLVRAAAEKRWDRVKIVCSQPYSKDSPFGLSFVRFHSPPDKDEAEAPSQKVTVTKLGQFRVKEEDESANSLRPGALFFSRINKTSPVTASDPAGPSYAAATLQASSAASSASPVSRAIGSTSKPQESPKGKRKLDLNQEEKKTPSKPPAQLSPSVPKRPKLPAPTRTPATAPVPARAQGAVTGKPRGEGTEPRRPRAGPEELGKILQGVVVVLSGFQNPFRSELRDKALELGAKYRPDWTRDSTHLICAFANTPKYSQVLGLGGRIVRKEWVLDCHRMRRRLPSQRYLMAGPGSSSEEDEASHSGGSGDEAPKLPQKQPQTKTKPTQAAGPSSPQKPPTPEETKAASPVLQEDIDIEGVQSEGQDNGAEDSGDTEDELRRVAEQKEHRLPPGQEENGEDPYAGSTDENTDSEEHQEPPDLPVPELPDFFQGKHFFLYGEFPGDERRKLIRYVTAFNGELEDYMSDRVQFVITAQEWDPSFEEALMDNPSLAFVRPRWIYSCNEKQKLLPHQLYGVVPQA

Tests used:
1xFLAG-CASZ1b (human) [1] = target: T1, 1xFLAG-CASZ1b (human) (UniProt Q86V15); assay: condition: only with PARP inhibitor AZD2281, 50 μM, 24 hr; co-IP; HEK293T transfected with FLAG-CASZ1b for 5.5 hr, then PARP inhibitor AZD2281 (50 μM) for 24 hr; anti-FLAG co-IP, western blot
T1 sequence: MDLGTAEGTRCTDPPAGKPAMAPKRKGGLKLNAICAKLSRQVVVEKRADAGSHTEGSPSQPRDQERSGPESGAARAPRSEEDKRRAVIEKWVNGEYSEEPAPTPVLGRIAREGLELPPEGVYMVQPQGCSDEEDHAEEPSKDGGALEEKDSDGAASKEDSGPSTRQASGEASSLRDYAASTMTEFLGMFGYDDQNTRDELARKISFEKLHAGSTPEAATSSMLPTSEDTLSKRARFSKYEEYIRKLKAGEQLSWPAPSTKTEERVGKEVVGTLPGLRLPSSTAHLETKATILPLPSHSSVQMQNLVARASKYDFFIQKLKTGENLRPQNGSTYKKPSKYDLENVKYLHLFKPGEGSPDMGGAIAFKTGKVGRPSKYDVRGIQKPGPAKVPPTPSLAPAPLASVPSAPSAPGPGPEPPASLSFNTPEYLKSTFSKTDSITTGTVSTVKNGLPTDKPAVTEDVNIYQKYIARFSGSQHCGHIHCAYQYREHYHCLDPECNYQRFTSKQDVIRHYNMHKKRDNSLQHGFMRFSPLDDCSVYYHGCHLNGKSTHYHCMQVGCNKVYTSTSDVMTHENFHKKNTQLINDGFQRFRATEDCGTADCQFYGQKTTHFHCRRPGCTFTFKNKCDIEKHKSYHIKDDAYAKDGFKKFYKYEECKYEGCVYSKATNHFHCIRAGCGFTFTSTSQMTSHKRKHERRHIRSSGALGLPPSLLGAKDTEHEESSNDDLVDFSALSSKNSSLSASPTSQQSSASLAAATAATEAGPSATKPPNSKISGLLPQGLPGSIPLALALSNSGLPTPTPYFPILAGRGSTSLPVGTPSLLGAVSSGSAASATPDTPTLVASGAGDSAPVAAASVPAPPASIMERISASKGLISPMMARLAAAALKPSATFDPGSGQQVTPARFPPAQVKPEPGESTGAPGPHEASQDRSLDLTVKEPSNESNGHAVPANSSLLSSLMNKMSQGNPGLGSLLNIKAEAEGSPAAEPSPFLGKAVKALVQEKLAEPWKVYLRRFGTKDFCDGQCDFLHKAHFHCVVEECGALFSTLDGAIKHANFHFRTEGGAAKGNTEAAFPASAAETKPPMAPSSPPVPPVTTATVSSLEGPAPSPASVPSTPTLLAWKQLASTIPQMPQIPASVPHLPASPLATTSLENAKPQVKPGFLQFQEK

1xFLAG-CASZ1b (human) [2] = target: T1, 1xFLAG-CASZ1b (human); assay: co-IP; HEK293T transiently transfected with 1xFLAG-CASZ1b, its mutants or empty vector; whole cell extract (200 mM NaCl, 1% Triton X-100, benzonase), ANTI-FLAG M2 magnetic beads 4 hr at 4°C, western blot; in Figure 6B with or without PARP inhibitor AZD2281 (50 μM, 24 hr)

binding (1xFLAG-CASZ1b (human) [1]): no binding
binding (1xFLAG-CASZ1b (human) [2]): binds
Substance: XRCC1 (HEK293T) (from UniProt P18887 1-633)
